Results reported in PubChem BioAssay AID1745853 (National Center for Advancing Translational Sciences (NCATS), 2022).
The other results are listed elsewhere or left out. These are further read-outs of the screen, such as a control signal, another cell line or another target. No call is given for them.

Columns and labels:
Assay in all cases: Primary Screen for Target Class Profiling of Small Molecule Inhibitors of Methyltransferases
[1] = molecular target: Glycine N-methyltransferase (Homo sapiens) (UniProt Q14749); details: purified enzyme, MTase-Glo SAH luminescence; measured here: GNMT inhibition; at 40 µM; stronger effect = lower value
Summary of the method: (§1)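 Each enzyme was reacted with SAM and its substrate, with compounds tested once at 40 uM; SAH formed was read by MTase-Glo luminescence.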

[2] = molecular target: Guanidinoacetate N-methyltransferase (Homo sapiens) (UniProt Q14353); details: purified enzyme, MTase-Glo SAH luminescence; measured here: GAMT inhibition; at 40 µM; stronger effect = lower value
Summary of the method: as §1

[3] = molecular target: Histamine N-methyltransferase (Homo sapiens) (UniProt P50135); details: purified enzyme, MTase-Glo SAH luminescence; measured here: HNMT inhibition; at 40 µM; stronger effect = lower value
Summary of the method: as §1

[4] = molecular target: Nicotinamide N-methyltransferase (Homo sapiens) (UniProt P40261); details: purified enzyme, MTase-Glo SAH luminescence; measured here: NNMT inhibition; at 40 µM; stronger effect = lower value
Summary of the method: as §1

[5] = molecular target: Phenylethanolamine N-methyltransferase (Homo sapiens) (UniProt P11086); details: purified enzyme, MTase-Glo SAH luminescence; measured here: PNMT inhibition; at 40 µM; stronger effect = lower value
Summary of the method: as §1
% is scaled to controls: 0 for no effect and ±100 for the full control effect.

Q: Which results are given for `C/C(=C\CCC(C)C1=CCC2(C)OC3=C(CC12)C(=O)C(O)CC3)CO` (configuration not stated)?
A: activity change, negative = inhibition [1]: -2.53%; activity change, negative = inhibition [2]: -5.79%; activity change, negative = inhibition [3]: 3.71%; activity change, negative = inhibition [4]: -22.2%; activity change, negative = inhibition [5]: -18.7%

Q: With `NCCC(=O)N1CCCC(N2CCN(c3ccccc3F)CC2)C1` (configuration not stated) as the compound, how does the activity change, negative = inhibition [1] read?
A: -0.231%

Q: What about the activity change, negative = inhibition [2] of the same compound?
A: -0.454%

Q: And the activity change, negative = inhibition [3]?
A: 1.41%

Q: What about the activity change, negative = inhibition [4] of the same compound?
A: -0.908%

Q: And the activity change, negative = inhibition [5]?
A: -1.16%

Q: How did the activity change, negative = inhibition [1] turn out when `NC(=O)c1csc(C2OC(CO)C(O)C2O)n1` (configuration not stated) was run?
A: 7.78%

Q: And the activity change, negative = inhibition [2]?
A: 1.31%

Q: What about the activity change, negative = inhibition [3] of the same compound?
A: 11.5%

Q: And the activity change, negative = inhibition [4]?
A: -4.13%

Q: What about the activity change, negative = inhibition [5] of the same compound?
A: 8.42%

Q: `Cc1ccc(C)c(NC(=O)Cn2c(=O)oc3cc(S(=O)(=O)N4CCCC4)ccc32)c1` was tested. Which activity change, negative = inhibition [1] did it give?
A: -8.72%

Q: What about the activity change, negative = inhibition [2] of the same compound?
A: 1.05%

Q: And the activity change, negative = inhibition [3]?
A: -7.5%

Q: What about the activity change, negative = inhibition [4] of the same compound?
A: -3.78%

Q: And the activity change, negative = inhibition [5]?
A: -8.36%

Q: Which results are given for `COc1ccc(-c2cc3n(n2)CC(C)(C(=O)NCc2ccccc2OC)N(Cc2ccc(Cl)cc2)C3=O)cc1` (configuration not stated)?
A: activity change, negative = inhibition [1]: 4.25%; activity change, negative = inhibition [2]: 3.72%; activity change, negative = inhibition [3]: 4.74%; activity change, negative = inhibition [4]: -2.96%; activity change, negative = inhibition [5]: -0.061%

Q: For `O=C(c1n[nH]c2c1CCCCCC2)N1CCc2c(nc3cc(-c4ccccc4)[nH]n3c2=O)C1`, which activity change, negative = inhibition [1] is on record?
A: -17.6%

Q: And the activity change, negative = inhibition [2]?
A: -4.71%

Q: And the activity change, negative = inhibition [3]?
A: -7.14%

Q: What about the activity change, negative = inhibition [4] of the same compound?
A: -6.86%

Q: And the activity change, negative = inhibition [5]?
A: -7.76%

Q: What does the source list for `O=C(O)CN(CCOCCOCCN(CC(=O)O)CC(=O)O)CC(=O)O`?
A: activity change, negative = inhibition [1]: 1.02%; activity change, negative = inhibition [2]: 8.55%; activity change, negative = inhibition [3]: 1.4%; activity change, negative = inhibition [4]: -8.05%; activity change, negative = inhibition [5]: 0.363%

Q: Which results are given for `C[C@@H]1O[C@@H](OC(=O)Cc2ccccc2)[C@H](O)[C@H](O)[C@H]1O`?
A: activity change, negative = inhibition [1]: -0.76%; activity change, negative = inhibition [2]: -4.51%; activity change, negative = inhibition [3]: 5.16%; activity change, negative = inhibition [4]: -11.6%; activity change, negative = inhibition [5]: -9.44%

Q: How did the activity change, negative = inhibition [1] turn out when `Cc1ccsc1CN1CCCC(O)(CN(C)C)C1` (configuration not stated) was run?
A: -4.45%

Q: What about the activity change, negative = inhibition [2] of the same compound?
A: -7.14%

Q: And the activity change, negative = inhibition [3]?
A: -1.83%

Q: And the activity change, negative = inhibition [4]?
A: -0.857%

Q: What about the activity change, negative = inhibition [5] of the same compound?
A: -3.71%

Q: For `CC1(C)CC23[C@@H]4CC(=O)[C@@H]2COC(=O)[C@@H]3CC[C@H]41`, which activity change, negative = inhibition [1] is on record?
A: -1.46%

Q: What about the activity change, negative = inhibition [2] of the same compound?
A: 1.24%

Q: And the activity change, negative = inhibition [3]?
A: 6%

Q: And the activity change, negative = inhibition [4]?
A: -10.5%

Q: What about the activity change, negative = inhibition [5] of the same compound?
A: -0.512%

Q: What does the source list for `CC1(C)CC[C@]2(C(=O)O)CC[C@]3(C)C(=CCC4[C@@]5(C)C[C@@H](O)[C@H](O)C(CO)(CO)C5CC[C@]43C)C2[C@@H]1O` (some centres not stated)?
A: activity change, negative = inhibition [1]: 0%; activity change, negative = inhibition [2]: -12.1%; activity change, negative = inhibition [3]: 5.6%; activity change, negative = inhibition [4]: -21.5%; activity change, negative = inhibition [5]: -11.5%

Q: Which results are given for `O=C(Cn1nc2n(Cc3ccccc3)c(=O)c3ccccc3n2c1=O)Nc1ccc2c(c1)OCCO2`?
A: activity change, negative = inhibition [1]: 4.07%; activity change, negative = inhibition [2]: 2.82%; activity change, negative = inhibition [3]: 8.03%; activity change, negative = inhibition [4]: -3.26%; activity change, negative = inhibition [5]: 0.326%

Q: Which activity change, negative = inhibition [1] does the source give for `CC(C)C[C@H](NC(=O)[C@@H](O)[C@H](N)Cc1ccccc1)C(=O)O` here?
A: -1.91%

Q: And the activity change, negative = inhibition [2]?
A: 5.91%

Q: And the activity change, negative = inhibition [3]?
A: 0.093%

Q: What about the activity change, negative = inhibition [4] of the same compound?
A: -6.39%

Q: And the activity change, negative = inhibition [5]?
A: 1.59%

Q: What does the source list for `CCc1cccc(N2C(=O)c3cc4ccc(OC)cc4n3CC2(C)C(=O)NC2CCCC2)c1` (configuration not stated)?
A: activity change, negative = inhibition [1]: 1.6%; activity change, negative = inhibition [2]: 0%; activity change, negative = inhibition [3]: 7.06%; activity change, negative = inhibition [4]: 5.74%; activity change, negative = inhibition [5]: -0.027%

Q: With `CC(=O)O[C@@]12CO[C@@H]1C[C@H](O)[C@@]1(C)C(=O)[C@H](O)C3=C(C)[C@@H](OC(=O)[C@H](O)[C@@H](NC(=O)OC(C)(C)C)c4ccccc4)C[C@@](O)([C@@H](OC(=O)c4ccccc4)C12)C3(C)C` (some centres not stated) as the compound, how does the activity change, negative = inhibition [1] read?
A: -1.07%

Q: What about the activity change, negative = inhibition [3] of the same compound?
A: 9.98%
